In general, EC50 refers to the concentration needed to bring the measured effect to its halfway point.

The text below walks through data of patent US8822645B2, “Prostaglandin E2 dual variable domain immunoglobulins and uses thereof” (AbbVie Inc., priority 2008, dated 2014).

Like-named read-outs stand apart in the source and are kept apart here.

Experiment [1] concerns PGE2 / human EP4 receptor in HEK293 Gα16 cells. Briefly: EP4 bioassay (Ca++ flux, neutralization of PGE2). It is filed as cell-based. On the procedure:
The ability of anti-PGE2 antibodies and anti-PGE2 containing DVD-Ig molecules to inhibit the cellular response of PGE2 was determined in a Ca++ flux assay in HEK293 Gα16 cells stably transfected with human EP4 receptor. Cells were plated in black/clear poly-D-lysine plates, (Corning #3667, Corning, N.Y.) and incubated with Ca++-sensitive dye (Molecular Devices) for 90 minutes. Stock PGE2 (in 200 proof ethanol) was diluted with FLIPR buffer (containing 1×HBSS (Invitrogen, Carlsbad, Calif.), 20 mM HEPES (Invitrogen, Carlsbad, Calif.), 0.1% BSA (Sigma, St. Louis, Mo.) and 2.5 mM Probenecid (Sigma, St. Louis, Mo.)). […] A dose response of PGE2 was done by a serial titration of PGE2 and was determined using FLIPR1 or Tetra (Molecular Devices). EC50 was determined using GraphPad Prism 5 (GraftPad Software, La Jolla, Calif.). […] Ca++ flux was monitored using FLIPR1 and data was analyzed using GraphPad Prism 5.
The ability of anti-PGE2 antibodies and anti-PGE2 containing DVD-Ig molecules to inhibit the cellular response of PGE2 was determined in a Ca++ flux assay using stably transfected human EP4 in HEK293 Gα16 cells. […] A dose response of PGE2 was done by a serial titration of PGE2 and was determined using FLIPR1 or Tetra (Molecular Devices). EC50 was determined using GraphPad Prism 5. […] Ca++ flux was monitored using FLIPR1 and data was analyzed using GraphPad Prism 5.

The nature of experiment [2]: PGE2-biotinamide ELISA (PGE2 binding). The protocol: Enzyme linked immunosorbent assays to screen for anti-PGE2 antibodies or anti-PGE2 containing DVD-Ig molecules that bind prostaglandin E2 were performed as follows. ELISA plates (Costar 3369, Corning, N.Y.) were coated with 50 μl of anti-host Fc IgG (Sigma, St. Louis, Mo.) at 2 μg/ml in PBS (Invitrogen Carlsbad, Calif.). Following an overnight incubation at 4° C., the plate was blocked with 200 μl Superblock (Pierce #37535, Rockford, Ill.). […] Plates were read at 450 nm on a Molecular Devices Spectramax plate reader (Sunnyvale, Calif.). EC50 was determined using GraphPad Prism 5 (GraphPad Software, La Jolla, Calif.) (FIG. 2).
ELISA plates (Costar 3369, Corning, N.Y.) were coated with 50 μl of anti-host Fc IgG (Sigma, St. Louis, Mo.) at 2 μg/ml in PBS (Invitrogen, Carlsbad, Calif.). […] Plates were read at 450 nm on a Molecular Devices Spectramax plate reader (Sunnyvale, Calif.). EC50 was determined using GraphPad Prism 5 (GraphPad Software, La Jolla, Calif.).

B1: DVD156: DVD-Ig construct listed in Table 4 (antibody)
VH: EVQLVESGGGLVQPGGSLRLSCAASGFTFSNYWMNWVRQAPGKGLEWVAAINQDGSEKYYVGSVKGRFTISRDNAKNSLYLQMNSLRVEDTAVYYCVRDYYDILTDYYIHYWYFDLWGRGTLVTVSSASTKGPEVQLVQSGAEVKKPGASVKVSCKASGYTFTKYWLGWVRQAPGQGLEWMGDIYPGYDYTHYNEKFKDRVTLTTDTSTSTAYMELRSLRSDDTAVYYCARSDGSSTYWGQGTLVTVSS
VL: [about 100 residues not written out]RTVAAPDVLMTQTPLSLPVTPGEPASISCTSSQNIVHSNGNTYLEWYLQKPGQSPQLLIYKVSNRFSGVPDRFSGSGSGTDFTLKISRVEAEDVGVYYCFQVSHVPYTFGGGTKVEIKR
B1: the 50% effective concentration (EC50) was 25 pM in experiment [1] (PGE2 VD in C-terminal position, read-out: C-terminal VD PGE2 Neutralization EC50) and 1550 pM in experiment [2] (PGE2 VD in C-terminal position, read-out: Direct Bind ELISA C-terminal VD EC50).

B2: DVD155: DVD-Ig construct listed in Table 4 (antibody)
VH: EVQLVQSGAEVKKPGASVKVSCKASGYTFTKYWLGWVRQAPGQGLEWMGDIYPGYDYTHYNEKFKDRVTLTTDTSTSTAYMELRSLRSDDTAVYYCARSDGSSTYWGQGTLVTVSSASTKGPEVQLVESGGGLVQPGGSLRLSCAASGFTFSNYWMNWVRQAPGKGLEWVAAINQDGSEKYYVGSVKGRFTISRDNAKNSLYLQMNSLRVEDTAVYYCVRDYYDILTDYYIHYWYFDLWGRGTLVTVSS
VL: DVLMTQTPLSLPVTPGEPASISCTSSQNIVHSNGNTYLEWYLQKPGQSPQLLIYKVSNRFSGVPDRFSGSGSGTDFTLKISRVEAEDVGVYYCFQVSHVPYTFGGGTKVEIKRTVAAP[about 100 residues not written out]
Regarding B2, the 50% effective concentration (EC50) in experiment [1] (PGE2 VD in N-terminal position, read-out: N-terminal VD PGE2 Neutralization EC50) was found to be 23 pM; in experiment [2] (PGE2 VD in N-terminal position, read-out: Direct Bind ELISA N-terminal VD EC50), 1440 pM.
